Reference: paper PMC4336329 (PLoS ONE, 2015)
The whole screen tested about 310,000 compounds, of which about 2,200 (0.71%) showed an effect of 50% or more. The effect is printed as a negative number. This is one part of the list.

What follows are compounds tested against human ether-à-go-go-related gene (hERG) potassium channel (human, UniProt Q12809) (assay: primary screen, population patch clamp on CHO cells stably expressing hERG).
Sequence of human ether-à-go-go-related gene (hERG) potassium channel (Q12809 whole entry, looked up): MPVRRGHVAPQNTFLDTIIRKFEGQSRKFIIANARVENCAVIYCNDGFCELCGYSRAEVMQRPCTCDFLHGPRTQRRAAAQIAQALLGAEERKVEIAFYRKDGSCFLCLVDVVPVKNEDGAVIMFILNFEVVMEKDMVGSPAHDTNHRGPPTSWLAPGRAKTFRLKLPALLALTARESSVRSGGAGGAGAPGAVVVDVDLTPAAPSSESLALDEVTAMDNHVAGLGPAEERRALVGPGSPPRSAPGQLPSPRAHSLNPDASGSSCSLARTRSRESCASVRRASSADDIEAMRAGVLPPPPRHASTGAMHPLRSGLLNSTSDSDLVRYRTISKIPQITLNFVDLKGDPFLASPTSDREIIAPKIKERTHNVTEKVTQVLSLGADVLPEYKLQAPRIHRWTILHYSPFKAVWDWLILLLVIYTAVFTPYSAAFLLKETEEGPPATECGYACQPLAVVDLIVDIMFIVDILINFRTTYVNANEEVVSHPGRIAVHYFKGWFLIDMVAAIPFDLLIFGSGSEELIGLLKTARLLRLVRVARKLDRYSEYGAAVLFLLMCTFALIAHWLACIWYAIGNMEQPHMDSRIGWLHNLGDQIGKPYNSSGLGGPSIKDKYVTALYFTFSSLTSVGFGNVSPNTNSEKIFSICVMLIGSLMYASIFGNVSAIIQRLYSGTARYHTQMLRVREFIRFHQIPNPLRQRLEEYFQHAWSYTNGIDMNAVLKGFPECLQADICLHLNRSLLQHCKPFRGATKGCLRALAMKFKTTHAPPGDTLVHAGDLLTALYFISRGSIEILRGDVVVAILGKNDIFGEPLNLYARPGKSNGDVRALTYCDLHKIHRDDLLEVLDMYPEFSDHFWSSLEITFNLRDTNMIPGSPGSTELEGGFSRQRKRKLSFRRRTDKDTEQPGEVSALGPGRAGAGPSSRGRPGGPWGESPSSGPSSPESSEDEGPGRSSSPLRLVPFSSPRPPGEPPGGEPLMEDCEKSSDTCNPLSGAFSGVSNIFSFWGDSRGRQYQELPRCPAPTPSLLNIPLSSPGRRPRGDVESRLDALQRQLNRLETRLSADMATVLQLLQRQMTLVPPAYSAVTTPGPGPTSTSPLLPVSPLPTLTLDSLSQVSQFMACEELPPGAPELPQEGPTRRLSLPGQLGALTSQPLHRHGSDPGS

| Compound | hERG current change (%, negative = inhibition) at 1uM |
| --- | --- |
| CC1(C)CC(O)C(CCC(O)c2ccccc2)C(C)(C)N1 (stereo not shown) | 11.9% |
| O=C(COC(=O)COc1ccc(Cl)cc1)NC1CCCC1 | 11.8% |
| CC(=O)O/N=C(\N)Cc1ccc(-c2csnn2)cc1 | 12.5% |
| c1ccc2c(Nc3nc4c(s3)CCCC4)cccc2c1 | 3.89% |
| O=C(CSc1ccc(-c2ccc(-n3cccn3)cc2)nn1)Nc1ccc([N+](=O)[O-])cc1 | 15% |
| Cc1nc2ccc(NC(=O)COc3ccccc3C)cc2s1 | 8.51% |
| Oc1cc2ccccc2cc1-c1n[nH]c(=S)o1 | 8.88% |
| O=C(NCC1CCN(C(=O)c2ccc([N+](=O)[O-])cc2)CC1)c1ccc([N+](=O)[O-])cc1 | -74.6% |
| CCCCNC(=O)c1ccc(C)c(NC(=O)C2=C(C)OCCS2)c1 | 22.2% |
| COc1cccc(/C=C/C(=O)OC(C)C(=O)Nc2c(C)n(C)n(-c3ccccc3)c2=O)c1 (stereo not shown) | 7.77% |
| Cc1ccc(NC(=O)CN2CCN(c3ccccn3)CC2)c(Cl)c1 | -0.435% |
| CC1CCN(S(=O)(=O)c2ccc(Oc3ccc([N+](=O)[O-])cc3)cc2)CC1 | -12.7% |
| CCN(CC(=O)NC(=O)NCc1ccccc1)CC(=O)Nc1cc(Cl)ccc1C | 0.294% |
| CCCNC(=O)c1cnc(Sc2ncc(C(F)(F)F)cc2Cl)n1C | -6.83% |
| COC(=O)c1cc(OC)c(OC)cc1NC(=O)Cn1nnc(-c2ccccc2Cl)n1 | -11.8% |
| COc1cc(NC(=O)CN2C(=O)COc3ccc(S(=O)(=O)N4CCCCC4)cc32)cc(OC)c1 | 9.14% |
| CC(=O)N(CCP(=O)(c1ccccc1)c1ccccc1)Cc1ccco1 | 3.84% |
| O=C(NCCO)C(=O)NCC(c1ccc2c(c1)OCO2)N1CCN(c2ccc(F)cc2)CC1 (stereo not shown) | 11.4% |
| CCOC(=O)N/N=C\C=C\c1ccco1 | 10.7% |
| Cc1cccc(-c2nnc(SCc3nc4ccccc4[nH]3)n2Cc2ccco2)c1 | 7.8% |
| Cc1nn(-c2ccccc2)c(-n2cccc2)c1C(=O)O | 7.27% |
| O=C(Cc1n[nH]c(=O)c2ccccc12)N/N=C/c1cc2c(cc1Cl)OCO2 | 15.1% |
| Cc1cc(=O)c(C(=O)O)nn1-c1ccccc1F | 14.8% |
| CCCCn1c(N)c(N(CC)C(=O)CSc2nnc(-c3ccco3)n2CC)c(=O)[nH]c1=O | 19.2% |
| CCCCCCC(C)n1[nH]c(=O)c2c(C)cc(=O)[nH]c21 (stereo not shown) | 1.76% |
| CC(=O)Nc1ccc(S(=O)(=O)N2CCN(C)CC2)cc1 | 0.825% |
| Cc1cccc(NC(=O)c2c([N+](=O)[O-])c(C(C)(C)C)nn2C)c1 | 4.04% |
| O=C(O)CCSc1nnc(SCC(=O)NCC(F)(F)F)s1 | 1.24% |

| Compound | hERG current change (%, negative = inhibition) at 1uM |
| --- | --- |
| CC(C)Cn1c(N)c(C(=O)COC(=O)c2cc(C(F)(F)F)nc3c(C(F)(F)F)cccc23)c(=O)n(C)c1=O | 7.94% |
| N/C(Cc1ccccc1Sc1ccccc1)=N\O.O=C(O)/C=C\C(=O)O | 4.44% |
| COc1ccc(Cc2nc3c4c(ncn3n2)Oc2c(ccc3ccccc23)C4c2ccc(OC)c(OC)c2)cc1 (stereo not shown) | 18.3% |
| CCNc1nc(NC(C)(C)C)nc(N(CC)n2cnnc2)n1 | 3.91% |
| COc1ccc(NC(=S)N2CCCC2c2ccc(OC)c(OC)c2)cc1 (stereo not shown) | 9.64% |
| CNS(=O)(=O)c1cc(NC(=O)CCCNC(=O)c2ccc(Cl)cc2)ccc1C | 21.5% |
| CCN(CC)C(=O)COc1ccc(-c2ccccc2)cc1 | -19.7% |
| O=C(O)CCC(=O)N1CCc2cc(S(=O)(=O)NCc3ccc(Cl)cc3)ccc21 | 10.1% |
| O=C(Nc1nnc(-c2ccco2)o1)C1CC1 | 14.8% |
| CCOc1cccc2sc(N(CCN(CC)CC)C(=O)c3ccc(S(=O)(=O)N4CCCCC4)cc3)nc12.Cl | -31.8% |
| O=C(NCc1ccco1)c1ccccc1-c1ccccc1 | 2.18% |
| O=C(Oc1c(CN2CCOCC2)cc(Cl)c2cccnc12)c1ccc(F)cc1 | -13.5% |
| O=C(CCC1CCCN(Cc2ccc(O)c(Cl)c2)C1)NCc1ccccc1F (stereo not shown) | -5.03% |
| COc1ccc(N2CCN(c3ncnc4scc(-c5ccc(F)cc5)c34)CC2)cc1 | 4.67% |
| C(=N\N1CCN(C2c3ccccc3-c3ccccc32)CC1)/c1cccnc1 | 7.06% |
| COc1ccc(-c2[nH]ncc2-c2nc(C)cs2)c(O)c1 | 18.3% |
| COc1cc(C)ccc1OCc1cc(C(=O)N2CCCCCCC2)no1 | 8.18% |
| Cc1oc(-c2ccc(Cl)cc2)nc1CS(=O)CC(=O)NCCCN1CCOCC1 (stereo not shown) | 13.2% |
| CCCOC(=O)c1cc(-c2ccc(/C=C3/C(=O)N(C)C(=O)C(C#N)=C3C)o2)ccc1Cl | 9.54% |
| COc1ccc(OC)c(/C=N\NC(=O)c2cc3c(ccc4ccccc43)o2)c1 | 2.46% |
| COc1ccc(N2CCN(CCCNC(=O)C(=O)c3c(C)n(C)c4ccccc34)CC2)cc1 | -9.85% |
| Oc1ccc(-c2[nH]ncc2-c2ccc(Cl)cc2)c(O)c1 | 2.03% |
| CCOc1ccc(C(=O)N2CCN(CCc3ccccc3)CC2)cc1OCC | -77.5% |
| CCOc1ccc(/C=C/C(=O)NCCc2ccc(OC)c(OC)c2)cc1 | 7.83% |
| CC(=O)c1ccc(-c2nc3c4ccccc4ccn3c2C(C)=O)o1 | 12.9% |
| Cc1cc(C(=O)OCC(=O)NC2(C#N)CCCCC2)c(C)o1 | 9.27% |
| CCCN(CCC)CCNC(=O)C1CCN(Cc2nc(-c3ccc(Cl)cc3)oc2C)CC1 | -17.9% |
